Consider 44 compounds from the supplement of paper PMC5919970.

The test system of this assay is TYKNU. The experiment in a line: fractional viability relative to vehicle; TYKNU is a high-grade serous ovarian cancer line; higher = less growth inhibition. The settings on record: 72 h, genotype: OPA1 knockout (sgOPA1 #2). A digest of the protocol: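 TYKNU control cells or lentiCRISPRv2 knockout derivatives were plated at 500 cells per well in duplicate into drug-stamped 384-well plates holding a ~2100-compound library at 2 or 10 μM. Culture was in RPMI 1640 with 10% FBS at 37 °C in 5% CO2, with 72 h of drug treatment. Viability was measured by Cell Titer Glo luminescence, and the averaged duplicate treatment wells were normalised to duplicate control wells at the same plate position.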

Where a name gives a salt, the structure may show the parent alone. In all, about 2,000 compounds were measured (“fractional viability relative to vehicle”: median about 0.92, lowest 2% from about 0.11 on). Some of the results follow.

With `Cc1cnc(NC(=O)C2=C(O)c3ccccc3S(=O)(=O)N2C)s1` [Meloxicam], the fractional viability came out at 1.18 (2uM) and 1.33 (10uM).
The compound `O=C(O)CCCc1ccccc1` [Sodium Phenylbutyrate] registered a fractional viability (2uM) of 0.906 and a fractional viability (10uM) of 0.793.
For `CC1(C)O[C@@H]2C[C@H]3[C@@H]4CCC5=CC(=O)C=C[C@]5(C)[C@@]4(F)[C@@H](O)C[C@]3(C)[C@]2(C(=O)CO)O1` [Triamcinolone Acetonide], in that order: 0.992 and 1.02.
Taken in the same sequence, the figures for `C[C@@H]1C[C@H]2[C@@H]3CCC4=CC(=O)C=C[C@]4(C)[C@@]3(F)[C@@H](O)C[C@]2(C)[C@@]1(O)C(=O)CO` [Dexamethasone (DHAP)] were 1.03 and 1.09.
For `OC1(c2ccc(Cl)c(C(F)(F)F)c2)CCN(CCCC(c2ccc(F)cc2)c2ccc(F)cc2)CC1` [Penfluridol], in that order: 0.625 and 0.178.
As to `CC(C)Oc1ccc(C(=O)N[C@H](CNC(=O)CN(C)C)Cc2ccc(-c3cn4cccc([C@H](C)O)c4n3)cc2)cc1Cl`, the fractional viability (2uM) came to 0.78 and the fractional viability (10uM) was found to be 0.703.
Taken in the same sequence, the figures for `Cc1nnc(NS(=O)(=O)c2ccc(N)cc2)s1` [Sulfamethizole] were 1.13 and 1.01.
`FC(F)c1nc2ccccc2n1-c1nc(N2CCOCC2)nc(N2CCOCC2)n1`: the fractional viability by setting is: (2uM) 1.18; (10uM) 0.638.
Taken in the same sequence, the figures for `COc1ccccc1S(=O)(=O)Nc1ccc2c(c1)CN(C)C(=O)N2` were 1.09 and 0.829.
Taken in the same sequence, the figures for `CCC(=O)c1c(O)cc(O)cc1O` [Flopropione] were 0.909 and 0.914.
Taken in the same sequence, the figures for `C=CC(=O)Nc1ccc2ncnc(Nc3cccc(Br)c3)c2c1` were 0.982 and 0.588.
Take `CC1Cc2ccccc2N1NC(=O)c1ccc(Cl)c(S(N)(=O)=O)c1` (stereo not drawn) [Indapamide]: the fractional viability (2uM) came out at 1.06 and the fractional viability (10uM) worked out at 0.876.
Taken in the same sequence, the figures for `O=C(/C=C\n1cnc(-c2cc(C(F)(F)F)cc(C(F)(F)F)c2)n1)NNc1ccccn1` [Verdinexor (KPT-335)] were 0.256 and 0.231.
Regarding `CCOCC(O)COc1ccc(NC(=O)CC[S+](C)C)cc1` (stereo not drawn) [Suplatast Tosylate], the fractional viability was 1.02 (2uM) and 1.07 (10uM).
Regarding `CN1CCN(CCOc2cc(OC3CCOCC3)c3c(Nc4c(Cl)ccc5c4OCO5)ncnc3c2)CC1` [Saracatinib (AZD0530)], the fractional viability reads like this: (2uM) 1.05; (10uM) 1.03.
Taken in the same sequence, the figures for `CNc1cccc(CCOc2ccc3c(c2)CN(CC(F)(F)F)C(=O)[C@H](CC(=O)O)C3)n1` were 0.781 and 0.671.
Consider `CCCCCCCCCCCCCCCC(=O)O[C@@H]1[C@@H](O)[C@@H](O)[C@@H]([C@H](NC(=O)[C@@H]2C[C@@H](CCC)CN2C)[C@H](C)Cl)O[C@@H]1SC` [Clindamycin palmitate HCl], for which the fractional viability (2uM) came to 0.713 and the fractional viability (10uM) came to 0.932.
For `CC(=O)Nc1ncc([N+](=O)[O-])s1` [Nithiamide], in that order: 1.55 and 1.18.
On to `CC[C@H]1OC(=O)[C@H](C)[C@@H](O[C@H]2C[C@@](C)(OC)[C@@H](O)[C@H](C)O2)[C@H](C)[C@@H](O[C@@H]2O[C@H](C)C[C@H](N(C)C)[C@H]2O)[C@](C)(O)C[C@@H](C)[C@@H]2N[C@@H](COCCOC)O[C@H]([C@H]2C)[C@]1(C)O` [Dirithromycin], for which the fractional viability is 0.946 (2uM) and 0.856 (10uM).
For `O=C1CC2(CCCC2)CC(=O)N1CCCCN1CCN(c2ncccn2)CC1` [Buspirone HCl], in that order: 1.07 and 0.915.
As for `O=C(NOC[C@H](O)CO)c1ccc(F)c(F)c1Nc1ccc(I)cc1F`, the fractional viability is, setting by setting: (2uM) 0.528; (10uM) 0.453.
For `CC(C)c1cc(-c2ccc(F)c3ccccc23)nc(N)n1`, in that order: 1.05 and 0.905.
For `Cc1cc(C)c(/C=C2\C(=O)Nc3ccccc32)[nH]1` [Semaxanib (SU5416)], in that order: 0.956 and 0.988.
As to `COc1ccc(S(=O)(=O)N(C(C)=O)c2ccccc2/C=C/c2cc[n+]([O-])cc2)cc1`, the fractional viability is, setting by setting: (2uM) 0.382; (10uM) 0.396.
Consider `Cc1c(F)cc(C(=O)NC2CC2)cc1-c1ccc(C(=O)NCC(C)(C)C)cn1`, for which the fractional viability came to 0.986 (2uM) and 0.973 (10uM).
In the case of `CC(C)(C)c1ccc(-c2nc3ccccc3[nH]2)cc1`, the fractional viability by setting is: (2uM) 0.538; (10uM) 0.175.
Turning to `O=C(/C=C/c1ccc(CN(CCO)CCc2c[nH]c3ccccc23)cc1)NO` [LAQ824 (Dacinostat)], the fractional viability runs as follows: (2uM) 0.228; (10uM) 0.25.
Taken in the same sequence, the figures for `Cc1nc(-c2cn3c(n2)-c2ccc(-c4cnn(C(C)(C)C(N)=O)c4)cc2OCC3)n(C(C)C)n1` were 0.978 and 0.936.
For `O=c1cc[nH]c(=S)[nH]1` [2-Thiouracil], in that order: 0.927 and 1.05.
Take `C[C@@H](N)[C@H]1CC[C@H](C(=O)Nc2ccncc2)CC1`: the fractional viability turned out to be 1.32 (2uM) and 1.21 (10uM).
Taken in the same sequence, the figures for `O=c1cc(-c2ccc(O)cc2)oc2cc(O)cc(O)c12` [Apigenin] were 0.916 and 1.23.
Turning to `CO[C@H]1/C=C/O[C@@]2(C)Oc3c(C)c(O)c4c(c3C2=O)C2=NC3(CCN(CC(C)C)CC3)NC2=C(NC(=O)/C(C)=C\C=C\[C@H](C)[C@H](O)[C@@H](C)[C@@H](O)[C@@H](C)[C@H](OC(C)=O)[C@@H]1C)C4=O` [Rifabutin], the fractional viability amounted to 1.12 (2uM) and 0.817 (10uM).
Taken in the same sequence, the figures for `CNc1nc(Nc2cnn([C@H]3CCN(C4COC4)C[C@@H]3F)c2Cl)ncc1C(F)(F)F` were 0.853 and 0.616.
Taken in the same sequence, the figures for `Clc1ccc(C(Cn2ccnc2)OCc2c(Cl)cccc2Cl)c(Cl)c1` (stereo not drawn) [Isoconazole nitrate] were 1.12 and 0.78.
For `CC(C)n1nc(-c2cc3cc(O)ccc3[nH]2)c2c(N)ncnc21`, in that order: 0.678 and 0.337.
As for `NC(=O)N1c2ccccc2C=Cc2ccccc21` [Carbamazepine], the fractional viability amounted to 1.17 (2uM) and 1.04 (10uM).
Consider `O=c1ncccn1[C@@H]1O[C@H](CO)[C@@H](O)[C@H]1O` [Zebularine], for which the fractional viability (2uM) worked out at 0.877 and the fractional viability (10uM) worked out at 0.914.
Taken in the same sequence, the figures for `O=C(CCCCCCNC(=O)c1cnc(N(c2ccccc2)c2ccccc2)nc1)NO` [Rocilinostat (ACY-1215)] were 0.704 and 0.49.
Taken in the same sequence, the figures for `NC(CO)(CO)CO` [Trometamol] were 0.883 and 0.842.
Taken in the same sequence, the figures for `O=C(NCCS(=O)(=O)c1ccc(C(F)(F)F)cn1)c1ccc(Cl)cc1` were 0.952 and 0.811.
As for `CC(C)CC(=O)Nc1n[nH]c2c1CN(C(=O)C1CCN(C)CC1)C2(C)C`, the fractional viability runs as follows: (2uM) 0.53; (10uM) 0.535.
Taken in the same sequence, the figures for `O=c1[nH]c(=O)n(C2CC(O)C(CO)O2)cc1Br` (stereo not drawn) [Bromodeoxyuridine (BrdU)] were 0.633 and 0.679.
For `Nc1nc(F)nc2c1ncn2[C@@H]1O[C@H](CO)[C@@H](O)[C@@H]1O` [Fludarabine], in that order: 0.555 and 0.277.
In turn, `CC(=O)N1c2ccc(-c3ccc(C(=O)O)cc3)cc2[C@H](Nc2ccc(Cl)cc2)C[C@@H]1C` had a fractional viability (2uM) of 0.529 and a fractional viability (10uM) of 0.337.
